Assay results reported in patent publication US20160032013A1 (Genentech, published 2016).

B1: Human RON-hIgG1 Fc (RON Sema/PSI/IPT1 fused to human IgG1 Fc) (Fc fusion)
chain: [letters of about 550 residues left out]PKLTEFHPHSGPLRGSTRLTLCGSNFYLHPSGLVPEGTHQVTVGQSPCRPLPKDSSKLRPVPRKDFVEEFECELEPLGTQAVGPTNVSLTVTNMPPGKHFRVDGTSVLRGFSFMTGTVT[letters of human IgG1 Fc left out]
notes: also called RON-Fc; hRON-Fc
B2: Mouse RON-hIgG1 Fc (murine RON Sema/PSI/IPT1, natural leader + R33-V684, fused to human IgG1 Fc) (Fc fusion)
chain: STNLNWQCPRIPYAASRDFSVKYVVPSFSAGGRVQATAAYEDSTNSAVFVATRNHLHVLGPDLQFIENLTTGPIGNPGCQTCASCGPGPHGPPKDTDTLVLVMEPGLPALVSCGSTLQGRCFLHELEPRGKALHLAAPACLFSANNNKPEACTDCVASPLGTRVTVVEQGHASYFYVASSLDPELAASFSPRSVSIRRLKSDTSGFQPGFPSLSVLPKYLASYLIKYVYSFHSGDFVYFLTVQPISVTSPPSALHTRLVRLNAVEPEIGDYRELVLDCHFAPKRRRRGAPEGTQPYPVLQAAHSAPVDAKLAVELSISEGQEVLFGVFVTVKDGGSGMGPNSVVCAFPIYHLNILIEEGVEYCCHSSNSSSLLSRGLDFFQTPSFCPNPPGGEASGPSSRCHYFPLMVHASFTRVDLFNGLLGSVKVTALHVTRLGNVTVAHMGTVDGRVLQVEIARSLNYLLYVSNFSLGSSGQPVHRDVSRLGNDLLFASGDQVFKVPIQGPGCRHFLTCWRCLRAQRFMGCGWCGDRCDRQKECPGSWQQDHCPPEISEFYPHSGPLRGTTRLTLCGSNFYLRPDDVVPEGTHQITVGQSPCRLLPKDSSSPRPGSLKEFIQELECELEPLVTQAVGTTNISLVITNMPAGKHFRVEGISVQEGFSFGRAQVT[letters of human IgG1 Fc left out]
notes: also called mRON-hFc; murine RON-Fc

Columns and labels:
[1] = target: T1, Full length human MSP 689R (wild type + C672A + His tag), active two-chain form (human, UniProt P26927 19-483; P26927 484-711); assay: BLI using RON-Fc at 30 C
T1 construct: Pro-MSP converted with sHepsin into the disulfide-linked alpha/beta heterodimer; Numbering is that of pro-MSP; also called full-length MSP; human full-length MSP
Description: Real-time kinetic measurements of MSP binding to RON were conducted using an Octet RED384 (ForteBio, Inc). Samples or buffer were dispensed into 96-well microtiter plates (Greiner Bio-One North America, Inc.) at a volume of 200 μl per well. Anti-human IgG Fc Biosensors were used for the experiments. Each experiment consisted of three steps: incubation with ForteBio Kinetic buffer diluted 1:10 in PBS assay buffer to establish an equilibrium for 120 s (baseline), incubation with 10 μg/ml RON-Fc in assay buffer to coat the biosensor with binding target for 900 s (load), incubation with MSP, MSP β or scMSP in assay buffer containing various concentrations (75-4.7 nM, 2-fold dilution series) for 400 s (association), and incubation with assay buffer to measure the off-rate of MSP for 400 s (dissociation). Operating temperature was maintained at 30° C. Data were generated automatically by the Octet Data Acquisition 7.0 software. Each data set was fitted globally to a simple one-to-one binding model using ForteBio Analysis Software 7.0 to determine the kinetic parameters kₐ and kd. The equilibrium dissociation constants (KD) were then calculated as a ratio (koff/kₒₙ) of these rate constants.

[2] = target: Human MSP β 689R with wild-type C672 (HGF leader + V484-G711 + C588S + C672C + His tag) (human, UniProt P26927 484-711); assay: SPR capturing RON-Fc at 25 C
Description: (§1) To determine MSP protein binding kinetics to hRON-Fc or mRON-Fc fusion proteins, between 50 and 100 response units (RU) were captured on each of three immobilized anti-human Fc surfaces. Various concentrations (50-0.78 nM, 2-fold dilution series) of MSP, MSP β, MSP α or scMSP were injected in HBS-P buffer (10 mM HEPES, pH 7.5, 150 mM NaCl, 0.005% P20) at 25° C. with a flow rate of 30 μL/min and dissociation monitored for 4 min. Between measurements, the biosensor surfaces were regenerated with a 2 min pulse of 10 mM glycine-HCl pH 1.5.

[3] = target: T1, Full length human MSP 689R (wild type + …); assay: SPR capturing RON-Fc at 25 C
Description: as §1

[4] = target: T1, Full length human MSP 689R (wild type + …); assay: SPR (Biacore), anti-Fc chip, murine RON-Fc captured and MSP protein injected; table headed 'Similar High Affinities for Murine RON'
Description: Binding kinetics of RON to MSP β-Fc fusion proteins and MSP proteins to RON-Fc fusions were determined using a Biacore 3000 optical biosensor equipped with a research-grade CM5 sensor chip (GE Healthcare). Amine coupling reagents, N-ethyl-N′-dimethylamino-propylcarbodiimide (EDC), N-hydroxy-succinimide (NHS) and sodium ethanolamine HCl, pH 8.5, were obtained from GE Healthcare. Standard coupling protocols were used to tether a rabbit anti-human IgG1 or rabbit anti-murine IgG2a (Jackson ImmunoResearch Laboratories) onto the biosensor surface. A biosensor chip that was subjected to the amine coupling procedure with no protein coupled was used to correct for non-specific binding. […] Various concentrations (500-3.9 nM, 2-fold dilution series) of RON-His, were injected in HBS-P buffer (10 mM HEPES, pH 7.5, 150 mM NaCl, 0.005% P20) at 25° C. with a flow rate of 30 μL/min and dissociation monitored for 240 sec. Between measurements, the biosensor surfaces were regenerated with a 120 s pulse of 10 mM glycine-HCl pH 1.5 followed by a 120 s wash with running buffer.
To function as a RON agonist, MSPβ-IgG2a fusion proteins must bind the RON receptor. To assay binding, surface plasmon resonance was used to measure the affinity of full-length human MSP, human and mouse MSP β, and a number of human and mouse MSPβ-IgG2a fusions for immobilized RON receptor. […]

Row | Binder | Kd [1] | Kd [2] | koff [2] | kon [2] | Kd [3] | koff [3] | kon [3] | Kd [4]
1 | B1 | 9.9 nM | 6.3 nM | 0.0066 s⁻¹ | 956000 M⁻¹ s⁻¹ | 6.4 nM | 0.0033 s⁻¹ | 511000 M⁻¹ s⁻¹ | –
2 | B2 | – | – | – | – | – | – | – | 5.3 nM
